# Assay results: PubChem BioAssay (Tox21)
# Inconclusive means that the source gave no clear call. Such entries were picked first, then a sample of the others. For some of these results: Potencies of inconclusive entries are left out as doubtful fits. Activity calls are given as the source filed them. Unless noted, calls follow the shape of the dose curve; as a rule, active = well fitted curve in the direction sought with a large enough effect in the repeat runs; inconclusive = weak or mixed curves; inactive = no such curve, though single readings can be large; an effect the other way counts as inactive or inconclusive.
# Legend:
# [1] = qHTS assay for small molecule agonists of the antioxidant response element (ARE) signaling pathway (AID 743202; active = well fitted activation curve with a large enough effect in the signal ratio in the repeat runs, not every such curve was filed as active; inconclusive = weak or mixed curves, or effect the other way; inactive = no such curve, though single readings can be large or run the other way; the % refers to the signal ratio; also: potency is read from the fitted curve at half-maximal effect; as to activation: % is scaled to controls: 0 for no effect and ±100 for the full control effect); settings: HepG2 ARE-bla reporter, beta-lactamase FRET, 16 h; activation: at 73.3 µM (top of the series) unless noted
# Procedure, shortened: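 Agonist mode reporter screen: HepG2 cells with ARE-controlled beta-lactamase are incubated with test compounds for 16 h at 37 C, and beta-lactamase activity is measured as fluorescence of cleaved B/G FRET substrate.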
# [2] = target: Peroxisome proliferator-activated receptor delta (Homo sapiens) (UniProt Q03181); assay: qHTS assay to identify small molecule agonists of the peroxisome proliferator-activated receptor delta (PPARd) signaling pathway (AID 743212; calls by dose curve; also: potency is read from the fitted curve at half-maximal effect; as to activation: % is scaled to controls: 0 for no effect and ±100 for the full control effect); settings: HEK293H PPARd-UAS-bla, beta-lactamase FRET ratio, 17 h; activation: at 62.6 µM (top of the series) unless noted
# Procedure, shortened: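 Quantitative high-throughput agonist screen in a HEK293H beta-lactamase reporter line under UAS control. Compounds in DMSO, at 37 C. Fluorescence read after 2 h with FRET substrate at room temperature.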
# [3] = target: Vitamin D3 receptor (Homo sapiens) (UniProt P11473); assay: qHTS assay to identify small molecule agonists of the vitamin D receptor (VDR) signaling pathway (AID 743222; calls by dose curve; also: potency is read from the fitted curve at half-maximal effect); settings: HEK293T VDR-UAS-bla, beta-lactamase FRET ratio, 16 h; activation: at 63.5 µM (top of the series) unless noted
# Procedure, shortened: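 VDR-bla cells were seeded, left 4 h, treated with compounds in DMSO for 16 h, incubated 2 h at RT with B/G FRET substrate, and read for fluorescence.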
# [4] = target: Nuclear receptor ROR-gamma (Homo sapiens) (UniProt P51449); assay: qHTS assay to identify small molecule antagonists of the retinoid-related orphan receptor gamma (ROR-gamma) signaling pathway (AID 1159521; also: nearly all actives have a fitted effect of over 50% in size; also: potency is read from the fitted curve at half-maximal effect)
# Procedure, shortened: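 Luminescence readout (ONE-Glo, 30 min RT) after 16 h doxycycline induction; loss of signal scored as antagonism. CHO cells with TET-inducible RORγ and RORE-LUC reporter; compounds added 2 h before 1 uM final doxycycline.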
# [5] = qHTS assay to identify small molecule agonists of the peroxisome proliferator-activated receptor delta (PPARd) signaling pathway - cell viability counter screen (AID 743211); settings: PPARd-bla HEK293H viability, CellTiter-Glo luminescence, 17 h; activity change, negative = cytotoxicity: at 62.6 µM (top of the series); also: nearly all actives have a fitted effect of over 55% in size; also: potency is read from the fitted curve at half-maximal effect
# Procedure, shortened: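 Read-out: CellTiter-Glo luminescence, 30 min RT, measured in the same wells as the beta-lactamase reporter. Cells: GeneBLAzer PPAR delta UAS-bla HEK293H, 3000 cells/well, compound exposure 17 h at 37C.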
# [6] = qHTS assay to identify small molecule antagonists of the peroxisome proliferator-activated receptor delta (PPARd) signaling pathway - cell viability counter screen (AID 743213); settings: PPARd-bla HEK293H viability, CellTiter-Glo luminescence, 17 h; viability change, negative = cytotoxic: at 62 µM (top of the series) unless noted; also: nearly all actives have a fitted effect of over 50% in size; also: potency is read from the fitted curve at half-maximal effect
# Procedure, shortened: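 Agonist-stimulated (L165041, 300 nM final) HEK293H PPARd UAS-bla cells are exposed to compounds for 17 h at 37 C, and ATP-based luminescence (CellTiter-Glo) from the same wells reports cytotoxicity.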
# [7] = target: Bile acid receptor (Homo sapiens) (UniProt Q96RI1); assay: qHTS assay to identify small molecule agonists of the farnesoid-X-receptor (FXR) signaling pathway (AID 743220; active = well fitted activation curve with a large enough effect in the signal ratio in the repeat runs, not every such curve was filed as active; inconclusive = weak or mixed curves, or effect the other way; the % refers to the signal ratio; also: potency is read from the fitted curve at half-maximal effect); settings: HEK293T FXR-UAS-bla, beta-lactamase FRET ratio, 16 h; activation: at 62.6 µM (top of the series)
# Procedure, shortened: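 Beta-lactamase reporter under UAS control in GeneBLAzer FXR HEK 293T cells (5000/well) measured with LiveBLAzer FRET substrate after 2 h at room temperature. Compound exposure lasted 16 h at 37C.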
# [8] = qHTS assay to identify small molecule antagonists of the vitamin D receptor (VDR) signaling pathway - cell viability counter screen (AID 743225); settings: VDR-bla HEK293T viability, CellTiter-Glo luminescence, 16 h; viability change, negative = cytotoxic: at 61 µM (top of the series) unless noted; also: nearly all actives have a fitted effect of over 50% in size; also: potency is read from the fitted curve at half-maximal effect
# Procedure, shortened: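 Viability counter screen run in the same wells as the beta-lactamase reporter assay: HEK 293T VDR-UAS-bla cells, 16 h compound exposure at 37C with 3 nM (final) 1-alpha,25-dihydroxyvitamin D3. CellTiter-Glo luminescence, 30 min, room temperature.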
# [9] = qHTS assay for small molecule activators of the heat shock response signaling pathway (AID 743210; active = well fitted activation curve with a large enough effect in the signal ratio in the repeat runs, with a control signal flat, not every such curve was filed as active; inconclusive = weak or mixed curves; the % refers to the signal ratio; also: potency is read from the fitted curve at half-maximal effect); settings: HeLa HSE-bla reporter, beta-lactamase ratio, 5 h; activation: at 62.6 µM (top of the series) unless noted
# Procedure, shortened: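 Quantitative high-throughput format using an engineered HeLa line in which heat shock response elements drive beta-lactamase; after 5 h with compound, cells received a B/G FRET substrate and fluorescence was read.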
# [10] = target: Peroxisome proliferator-activated receptor delta (Homo sapiens) (UniProt Q03181); assay: qHTS assay to identify small molecule antagonists of the peroxisome proliferator-activated receptor delta (PPARd) signaling pathway (AID 743215; active = well fitted inhibition curve with a large enough effect in the signal ratio in the repeat runs, not every such curve was filed as active; inconclusive = weak or mixed curves, or effect the other way; inactive = no such curve, though single readings can be large or run the other way; the % refers to the signal ratio; also: % is scaled to controls: 0 for no effect and ±100 for the full control effect); settings: HEK293H PPARd-UAS-bla, beta-lactamase FRET ratio, antagonist, 17 h; ratio activity, negative = inhibition: at 62 µM (top of the series) unless noted
# Procedure, shortened: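 With L165041 present at 300 nM final, compounds were incubated 17 h at 37 C on PPARd UAS-bla HEK293H cells. A FRET-based beta-lactamase substrate was then applied for 2 h at room temperature and fluorescence intensity recorded.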
# [11] = target: Bile acid receptor (Homo sapiens) (UniProt Q96RI1); assay: qHTS assay to identify small molecule antagonists of the farnesoid-X-receptor (FXR) signaling pathway (AID 743217; active = well fitted inhibition curve with a large enough effect in the signal ratio in the repeat runs, not every such curve was filed as active; inconclusive = weak or mixed curves, or effect the other way; inactive = no such curve, though single readings can be large or run the other way; the % refers to the signal ratio; also: % is scaled to controls: 0 for no effect and ±100 for the full control effect); settings: HEK293T FXR-UAS-bla, beta-lactamase ratio, CDCA-stimulated, 16 h; activity change, negative = inhibition: at 62.6 µM (top of the series) unless noted
# Procedure, shortened: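 In this cell-based antagonist screen, inhibition of CDCA-driven (50 uM final) UAS-beta-lactamase expression in HEK 293T cells was measured by FRET fluorescence following 16 h compound exposure at 37 °C.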
# [12] = qHTS assay to identify small molecule agonists of the farnesoid-X-receptor (FXR) signaling pathway - cell viability counter screen (AID 743218); settings: FXR-bla HEK293T viability, CellTiter-Glo luminescence, 16 h; viability change, negative = cytotoxic: at 62.6 µM (top of the series) unless noted; also: potency is read from the fitted curve at half-maximal effect; nearly all actives have a fitted effect of over 45% in size
# Procedure, shortened: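 After 16 h at 37 C with test compounds, FXR-bla HEK 293T cells were given LiveBLAzer B/G substrate for 2 h at RT and then CellTiter-Glo; luminescence was taken after 30 min.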
# [13] = qHTS assay to identify small molecule antagonists of the farnesoid-X-receptor (FXR) signaling pathway - cell viability counter screen (AID 743221; active = well fitted cell-killing curve with a large enough effect in the repeat runs, not every such curve was filed as active; inconclusive = weak or mixed curves, or effect the other way; inactive = no such curve, though single readings can be large or run the other way; also: nearly all actives have a fitted effect of over 50% in size; also: potency is read from the fitted curve at half-maximal effect); settings: FXR-bla HEK293T viability, CellTiter-Glo luminescence, 16 h; activity change, negative = cytotoxicity: at 62.6 µM (top of the series) unless noted
# Procedure, shortened: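 HEK 293T FXR-bla cells, 5 h pre-incubation; compound + CDCA 50 uM final, 16 h, 37 C; beta-lactamase FRET read first, then CellTiter-Glo luminescence, 30 min RT.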
# [14] = target: Vitamin D3 receptor (Homo sapiens) (UniProt P11473); assay: qHTS assay to identify small molecule antagonists of the vitamin D receptor (VDR) signaling pathway (AID 743223; active = well fitted inhibition curve with a large enough effect in the signal ratio in the repeat runs, not every such curve was filed as active; inconclusive = weak or mixed curves, or effect the other way; inactive = no such curve, though single readings can be large or run the other way; the % refers to the signal ratio; also: potency is read from the fitted curve at half-maximal effect); settings: VDR-UAS-bla HEK293T, beta-lactamase FRET ratio, 16 h; activity change, negative = inhibition: at 61 µM (top of the series) unless noted
# Procedure, shortened: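 Beta-lactamase reporter read-out: FRET substrate fluorescence after 2 h at room temperature, following 16 h exposure of VDR-bla cells to test compound plus 3 nM (final) 1alpha,25-dihydroxyvitamin D3 agonist at 37C.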
# Tags tell the direction and shape of the fitted curve or compound fluorescence and quenching.
# Chain of UniProt Q96RI1 (Q96RI1 whole entry, looked up): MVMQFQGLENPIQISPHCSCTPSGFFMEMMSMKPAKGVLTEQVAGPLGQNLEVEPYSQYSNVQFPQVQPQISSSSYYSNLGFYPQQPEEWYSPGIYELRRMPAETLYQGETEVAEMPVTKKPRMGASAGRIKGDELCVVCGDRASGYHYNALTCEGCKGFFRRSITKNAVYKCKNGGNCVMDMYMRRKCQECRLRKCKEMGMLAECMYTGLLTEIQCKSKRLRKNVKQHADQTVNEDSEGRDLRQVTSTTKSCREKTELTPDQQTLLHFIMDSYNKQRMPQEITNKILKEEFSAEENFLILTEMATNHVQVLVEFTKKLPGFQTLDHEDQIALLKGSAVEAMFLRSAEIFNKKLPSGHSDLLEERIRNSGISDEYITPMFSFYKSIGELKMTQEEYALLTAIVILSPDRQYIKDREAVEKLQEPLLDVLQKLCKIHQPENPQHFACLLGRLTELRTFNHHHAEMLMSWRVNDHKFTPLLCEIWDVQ
# Chain of UniProt Q03181 (Q03181 whole entry, looked up): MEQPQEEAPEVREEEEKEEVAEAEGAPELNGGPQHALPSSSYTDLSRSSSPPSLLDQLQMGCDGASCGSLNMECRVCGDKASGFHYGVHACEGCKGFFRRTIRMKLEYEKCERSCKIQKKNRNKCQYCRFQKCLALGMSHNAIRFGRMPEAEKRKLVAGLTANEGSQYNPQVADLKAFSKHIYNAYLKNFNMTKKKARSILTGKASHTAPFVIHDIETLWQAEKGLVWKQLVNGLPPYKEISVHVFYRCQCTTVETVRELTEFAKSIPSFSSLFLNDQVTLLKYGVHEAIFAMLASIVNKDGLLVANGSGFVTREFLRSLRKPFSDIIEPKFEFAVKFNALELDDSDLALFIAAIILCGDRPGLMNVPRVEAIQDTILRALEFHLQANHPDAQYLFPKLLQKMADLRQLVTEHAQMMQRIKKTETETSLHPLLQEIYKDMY
# Chain of UniProt P11473 (P11473 whole entry, looked up): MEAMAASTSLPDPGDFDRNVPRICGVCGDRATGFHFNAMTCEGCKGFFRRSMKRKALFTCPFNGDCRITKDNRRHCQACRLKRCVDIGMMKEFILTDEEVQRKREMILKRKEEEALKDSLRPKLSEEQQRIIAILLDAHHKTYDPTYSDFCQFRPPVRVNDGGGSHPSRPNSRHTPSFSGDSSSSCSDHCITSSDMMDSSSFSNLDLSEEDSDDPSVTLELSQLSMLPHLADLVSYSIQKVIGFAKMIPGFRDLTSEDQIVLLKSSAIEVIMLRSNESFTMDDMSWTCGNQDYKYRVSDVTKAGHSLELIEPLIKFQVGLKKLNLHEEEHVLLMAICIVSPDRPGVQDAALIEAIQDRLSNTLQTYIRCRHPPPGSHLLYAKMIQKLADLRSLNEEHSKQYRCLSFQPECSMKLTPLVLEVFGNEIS
compound,measurement,setting,value
CC1(C)OC(=O)NC1=O,activation,[1],inconclusive: -5.95%
same,activation,[2],inconclusive: 8.04%
same,Potency,[3],inactive
same,Potency,[4],"inconclusive [inhibitor, full curve]"
C[N+]12CCC(CC1)C(OC(=O)C(O)(c1ccccc1)c1ccccc1)C2 (centres undefined),activation,[1],inconclusive: -9.23%
same,Potency,[5],"inconclusive [cytotoxic, single point]"
same,activation,[2],inconclusive: 8.53%
same,Potency,[6],"inconclusive [rising, partial curve]"
same,Potency,[7],"inconclusive [rising, partial curve, poor fit]"
same,Potency,[8],inactive
same,Potency,[4],inactive
Cc1ccc2ccc(Cl)cc2n1,Potency,[1],inactive
same,Potency,[6],inactive
same,Potency,[4],inactive
Oc1ccc(C(O)CNCCCCCCNCC(O)c2ccc(O)c(O)c2)cc1O (centres undefined),activation,[1],inconclusive: -32.1%
same,Potency,[9],"inconclusive [activator, single point]"
same,"ratio activity, negative = inhibition",[10],inconclusive: -5.59%
same,Potency,[4],inactive
Nc1ccc(N)c2c1C(=O)c1ccccc1C2=O,activation,[1],inconclusive: 33.2%
same,Potency,[5],inactive
same,"activity change, negative = inhibition",[11],inconclusive: 2.96%
same,Potency,[12],"inconclusive [cytotoxic, full curve]"
same,activation,[7],inconclusive: 8.65%
same,Potency,[13],inactive
same,Potency,[4],"inconclusive [inhibitor, single point]"
CC(=O)OCC(=O)[C@H]1CC[C@H]2[C@@H]3CCC4=CC(=O)CC[C@]4(C)[C@H]3CC[C@]12C,activation,[1],inconclusive: 27%
same,Potency,[9],inactive
same,"ratio activity, negative = inhibition",[10],inconclusive: 17.1%
same,Potency,[11],inactive
same,Potency,[14],inactive
same,Potency,[4],"inconclusive [inhibitor, partial curve, poor fit]"
O=c1oc2c(O)c(O)cc3c(=O)oc4c(O)c(O)cc1c4c23,Potency,[1],"inconclusive [falling, full curve]"
same,Potency,[9],inactive
same,Potency,[7],inactive
same,Potency,[4],"inconclusive [inhibitor, single point]"
CC(C)OC(=O)C(C)N(C(=O)c1ccccc1)c1ccc(F)c(Cl)c1 (centres undefined),activation,[1],inconclusive: 42.2%
same,Potency,[5],"inconclusive [cytotoxic, full curve, poor fit]"
same,Potency,[3],"inconclusive [rising, partial curve, poor fit]"
same,Potency,[8],"inconclusive [cytotoxic, single point]"
same,Potency,[4],"inconclusive [inhibitor, partial curve, poor fit]"
CC(C)(O)c1ccc(CNC(=O)c2cccnc2Oc2ccc(F)cc2)cc1,activation,[1],inconclusive: 5.12%
same,Potency,[2],inactive
same,Potency,[8],inactive
same,Potency,[4],"inconclusive [inhibitor, single point]"
Oc1ccccc1C=NCc1ccccc1,Potency,[1],inactive
same,Potency,[9],inactive
same,Potency,[7],inactive
same,Potency,[4],"inconclusive [inhibitor, single point]"
CO[Si](CCCS)(OC)OC,activation,[1],inconclusive: 13.5%
same,Potency,[9],inactive
same,Potency,[7],inactive
same,Potency,[13],"inconclusive [falling, single point]"
same,Potency,[4],inactive
CO[Si](CCCCl)(OC)OC,activation,[1],inconclusive: 24%
same,Potency,[6],inactive
same,Potency,[4],inactive
CCc1cc(C2=C(C(=O)O)N(c3ccccc3C(F)(F)F)S(=O)(=O)c3ccccc32)cc2c1OCO2,Potency,[1],"inconclusive [rising, full curve]"
same,Potency,[2],inconclusive
same,Potency,[6],"inconclusive [cytotoxic, partial curve, poor fit]"
same,Potency,[12],"inconclusive [cytotoxic, partial curve]"
same,Potency,[3],"inconclusive [rising, single point]"
same,Potency,[14],"inconclusive [fluorescent, partial curve, poor fit]"
same,Potency,[4],"inconclusive [inhibitor, partial curve, poor fit]"
CNCCCC1c2ccccc2C=Cc2ccccc21,Potency,[1],inconclusive
same,Potency,[5],active: 10.6 µM
same,Potency,[2],inconclusive
same,Potency,[6],active: 23.7 µM
same,Potency,[12],active: 23.7 µM
same,Potency,[13],"inconclusive [falling, single point]"
same,activation,[3],inconclusive: -23.3%
same,Potency,[8],"inconclusive [cytotoxic, single point]"
same,Potency,[4],"inconclusive [inhibitor, partial curve, poor fit]"
O=c1[nH]c2ccc(S(=O)CCN3CCC(Cc4ccc(F)cc4)CC3)cc2o1 (centres undefined),Potency,[1],"inconclusive [rising, full curve]"
same,Potency,[5],inactive
same,Potency,[2],"inconclusive [rising, partial curve, poor fit]"
same,Potency,[12],"inconclusive [rising, partial curve]"
same,Potency,[3],"inconclusive [rising, partial curve, poor fit]"
same,Potency,[14],"inconclusive [activator, partial curve]"
same,Potency,[4],inconclusive [inhibitor]
